The campaign covered roughly 310,000 compounds. About 2,200 (0.71%) showed an effect of 50% or more. Effects have a minus sign here. The list shows a part of the results.
Target: human ether-à-go-go-related gene (hERG) potassium channel (human, UniProt Q12809)
Assay: primary screen, population patch clamp on CHO cells stably expressing hERG

human ether-à-go-go-related gene (hERG) potassium channel, sequence (Q12809 whole entry, looked up): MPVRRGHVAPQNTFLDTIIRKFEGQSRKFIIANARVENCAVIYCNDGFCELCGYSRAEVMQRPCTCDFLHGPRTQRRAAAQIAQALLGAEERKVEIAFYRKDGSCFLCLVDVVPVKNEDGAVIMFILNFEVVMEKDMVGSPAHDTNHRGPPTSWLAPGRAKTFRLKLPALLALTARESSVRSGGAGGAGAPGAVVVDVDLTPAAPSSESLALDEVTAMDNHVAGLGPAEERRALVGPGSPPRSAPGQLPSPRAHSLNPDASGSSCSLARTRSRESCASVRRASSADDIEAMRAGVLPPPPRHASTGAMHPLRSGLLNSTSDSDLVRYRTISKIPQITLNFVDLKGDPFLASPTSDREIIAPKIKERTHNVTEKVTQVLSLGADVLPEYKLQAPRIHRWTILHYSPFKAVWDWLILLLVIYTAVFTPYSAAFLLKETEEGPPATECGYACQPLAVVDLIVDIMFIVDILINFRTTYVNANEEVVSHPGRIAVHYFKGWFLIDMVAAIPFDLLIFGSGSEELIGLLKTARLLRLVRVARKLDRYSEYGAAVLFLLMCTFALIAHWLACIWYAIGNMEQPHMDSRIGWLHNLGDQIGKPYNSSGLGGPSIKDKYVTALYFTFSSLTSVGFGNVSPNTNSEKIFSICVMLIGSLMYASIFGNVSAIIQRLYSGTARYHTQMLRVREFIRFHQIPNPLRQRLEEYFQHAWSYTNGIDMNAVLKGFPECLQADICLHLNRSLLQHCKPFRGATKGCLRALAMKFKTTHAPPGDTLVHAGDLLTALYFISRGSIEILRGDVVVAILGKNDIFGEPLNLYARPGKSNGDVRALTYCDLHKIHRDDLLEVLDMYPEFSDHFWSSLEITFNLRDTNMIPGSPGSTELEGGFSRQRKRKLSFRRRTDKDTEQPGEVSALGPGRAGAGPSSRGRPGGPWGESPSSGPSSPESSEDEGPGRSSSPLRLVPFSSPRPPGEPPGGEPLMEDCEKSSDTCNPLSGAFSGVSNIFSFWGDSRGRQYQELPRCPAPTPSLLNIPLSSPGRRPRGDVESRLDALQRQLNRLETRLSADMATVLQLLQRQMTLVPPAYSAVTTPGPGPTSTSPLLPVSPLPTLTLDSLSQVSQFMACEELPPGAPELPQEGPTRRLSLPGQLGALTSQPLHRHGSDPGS

Compound	hERG current change (%, negative = inhibition) at 1uM
O=C(/C=C/c1ccc(N2CCCCC2)c([N+](=O)[O-])c1)c1ccc(S(=O)(=O)N2CCCC2)cc1	10.8%
COCCn1cnnc1SCC(=O)Nc1sccc1C(N)=O	8.53%
Cc1ccc(S(=O)(=O)Oc2ccc(/C=C3/N=C(c4ccccc4)OC3=O)cc2)cc1	0.168%
NS(=O)(=O)c1ccc(CCNC(=O)c2cc([N+](=O)[O-])ccc2N2CCOCC2)cc1	-6.06%
CCN(CC)C(=O)CC(c1cc(OC)c(OC)c(OC)c1)c1c(OC)cc(OC)c2ccc(=O)oc12 (centres unmarked)	5.07%
Cc1cc([N+](=O)[O-])nn1CCCC(=O)Nc1cccc(Cl)c1Cl	2.92%
COC(=O)C1CCN(S(=O)(=O)CCNC(=O)c2ccc3c(c2)OCO3)CC1	12.8%
CC(C)(C)c1ccc(-c2nnc(N)s2)cc1	2.16%
Cc1ccc(NC(=O)Cn2c(=O)n(Cc3ccco3)c(=O)c3ccccc32)c(C)c1	3.37%
Cn1cnnc1SCC(=O)Nc1ccc(Cl)c(S(=O)(=O)N2CCOCC2)c1	11.8%
Cc1ccccc1-c1nc(SCc2cccnc2)c2c(=O)n(C)c(=O)n(C)c2n1	15%
COc1cc(C(=O)OCC(=O)N2CC(C)OC(C)C2)cc(OC)c1OC (centres unmarked)	23.2%
COc1ccc(OC)c(NC(=O)N[C@@H](Cc2ccccc2)C(=O)O)c1	4.68%
CCC(=O)c1cc(F)c(N2CCN(S(=O)(=O)c3ccc(C)cc3)CC2)cc1C	-5.99%
O=C(CSc1ccccn1)Nc1nc2ccccc2s1	5.51%
Cc1ccc(CNc2ccccc2C(=O)O)s1	15.7%
CCCCC(=O)Nc1ccc(NC(=O)c2cnccn2)cn1	18.4%
CCCN(C(=O)COC(=O)CCOc1ccccc1)c1c(N)n(Cc2ccccc2)c(=O)[nH]c1=O	2.16%
Cc1ccccc1CSc1nc(-c2ccccc2)cc(=O)[nH]1	6.64%
Cc1ccc(N(CC(=O)N2CCOCC2)S(=O)(=O)c2ccccc2)cc1	11.1%
CC(C)CC(c1nnnn1CC1CCCO1)N1CCN(c2cccc(Cl)c2)CC1 (centres unmarked)	2.5%
CCOC(=O)C1=C(C)NC2=C(C(=O)c3ccccc32)C1c1ccc(O)cc1 (centres unmarked)	11.2%
O=C(COC(=O)CCC(=O)c1cccs1)Nc1cc(S(=O)(=O)N2CCOCC2)ccc1Cl	-12.4%

Compound	hERG current change (%, negative = inhibition) at 1uM
COc1cc(/C=C/C(=O)c2ccc(Cl)s2)cc(OC)c1O	-4.35%
O=C(NNc1ccccn1)C(=O)NNS(=O)(=O)c1ccc(F)cc1	6.06%
O=C(COc1ccccc1)NC1CCS(=O)(=O)C1 (centres unmarked)	9.8%
O=C1OC(c2ccccc2)c2ccccc21 (centres unmarked)	9.85%
O=C(O)Cn1c(CC(=O)N2CCCC2)nc2ccccc21	13.5%
COc1ccc(CCNC(=O)CN(c2ccccc2)S(C)(=O)=O)cc1OC	0.694%
O=C(O)COc1ccc(-c2nnn(Cc3ccccc3F)n2)cc1	14.4%
COc1cc(/C=C(\C#N)C(=O)Nc2ccccc2C(=O)O)cc(Cl)c1OC	14.6%
CCOC(=O)CN1C(=O)COc2ccc(C(C)(C)C)cc21	-9.54%
O=C1c2cccc([N+](=O)[O-])c2C(=O)N1C1CCCCC1	14.9%
Cc1ccc2oc(-c3cc(NC(=O)c4ncn[nH]4)ccc3O)nc2c1	16.9%
Cc1cc(C(=O)CSc2nnc(-c3ccncc3)n2-c2ccccc2)c(C)n1C	-8.42%
COc1ccccc1OCC(=O)Nc1cccc(C(=O)N2CCOCC2)c1	7.16%
Cc1ccc(S(=O)(=O)N2CCN(C(C(=O)Nc3ccc(F)cc3)c3ccccc3)CC2)cc1 (centres unmarked)	-0.385%
O=C(/C=C/c1cccs1)NNC(=O)c1ccccc1	15.2%
CC(C)CCNC(=O)C(c1ccc(O)cc1)N(Cc1cccs1)C(=O)C1COc2ccccc2O1 (centres unmarked)	7.75%
Cc1ccsc1C(=O)Nc1ccc(S(=O)(=O)N2CCOCC2)cc1	8.81%
COc1ccccc1NC(=O)Nc1c(C)nn(C)c1C	6.28%
COc1ccc([N+](=O)[O-])cc1N(CC(=O)N(C)C)S(C)(=O)=O	19.1%
COc1ccccc1C1CCN(Cc2c(C)[nH]c3ccccc23)CC1	-11.8%
Cc1cc(SCC(=O)c2cc(C)n(C)c2C)nc2ccccc12	6.43%
COCC1CCN(Cc2nc(-c3cccs3)no2)C1 (centres unmarked)	13%
CCOC(=O)c1ccc(CSC(=N)N)o1	13.7%

Compound	hERG current change (%, negative = inhibition) at 1uM
COc1ccc(CCNc2nc(C)cc(C)n2)cc1OC.Cl	19.2%
CCN(CC)C(=O)CSc1nc2ccccc2c(=O)n1CC1CCCCC1	-10.4%
COC(=O)C1=C(c2ccc(-c3ccccc3)c(F)c2)C[C@@H]2CC[C@H]1N2C(=O)N1CCC(O)CC1	12.5%
O=C(CCC1COc2ccccc2O1)NC1CCCCC1 (centres unmarked)	-5.7%
Cl.N=c1n(CCO)c2ccccc2n1Cc1ccccc1	-0.847%
Cc1cccc(C)c1NC(=O)C(=O)NCC1CCCN1S(=O)(=O)c1ccccc1 (centres unmarked)	9.53%
Cc1cc(C)nc(CCNC(=O)C2CCC(=O)N(Cc3ccccc3F)C2)n1 (centres unmarked)	18.1%
C=CCNc1oc(C2CCCC2)nc1C#N	10.2%
Cc1cccc(Nc2cc(C)c3c(O)cccc3n2)c1C	5.18%
Cc1oc(-c2ccccc2F)nc1CS(=O)CC(=O)N1CCC2(CC1)OCCO2 (centres unmarked)	11.7%
Cc1ccc(C(=O)OCc2nnc(-c3ccccc3)o2)o1	8.75%
COC(=O)C(C(=O)Nc1cc(C)on1)C1CCCCCC1 (centres unmarked)	11.3%
CN1CCN(NC(=O)c2ccc(Cl)s2)CC1	13.7%
COc1ccc(CN2CC(=O)N(c3cc(Cl)ccc3OC)C2=S)cc1OC	5.57%
CN(CCO)c1nc2c(c(=O)n(Cc3ccc(Cl)cc3)c(=O)n2C)n1C	15.7%
COc1c(F)c(F)c(C(=O)Nc2ccc3oc(-c4ccncc4)nc3c2)c(F)c1F	14%
COc1ccc(S(=O)(=O)Nc2c(NC3CCCCC3)c3ccccc3oc2=O)cc1	-8.73%
O=c1oc(CCO)cc2ccc(C#Cc3ccsc3)cc12	11.1%
CCOC(=O)CSc1ccc2nnc(CCNS(=O)(=O)c3ccccc3)n2n1	7.83%
COc1ccc(NS(=O)(=O)c2cccc(C(=O)O)c2)cc1	5.71%
CNC(=O)C(=O)Nc1c(O)c2ccccc2[nH]c1=O	9.54%
O=C(Nc1ccncc1)c1ccc2c(c1)S(=O)(=O)c1ccccc1C2=O	9.37%
COCCn1c(SCC(=O)NC(=O)NC(C)C)nc2ccccc21	8.66%

Compound	hERG current change (%, negative = inhibition) at 1uM
COc1ccc2cc(C3(C)NC(=O)N(CC(=O)NCc4ccco4)C3=O)ccc2c1 (centres unmarked)	-2.02%
CCOc1ccc(NC(=O)CN(C)C(=O)c2ccc(N3CCOCC3)c([N+](=O)[O-])c2)cc1OCC	5.68%
CCC(=NCc1ccccc1)C1=C(O)C(C(=O)OC)C(C)(C)CC1=O (centres unmarked)	-3.45%
COc1ccccc1C(=O)NCC(=O)N1CCN(c2ncccn2)CC1	11.6%
CCOC(=O)c1cc(C#N)c(N2CCN(c3ccc(OC)cc3)CC2)[nH]c1=O	3.77%
COc1cc(OC)c(OC)cc1CNCCc1ccc(OC)c(OC)c1	-0.186%
COc1ccccc1C(=O)NCC(=O)OC(C)C(=O)N(C)C1CCCCC1 (centres unmarked)	8.39%
O=C1OC(c2ccc(F)cc2)=C/C1=C\c1ccc([N+](=O)[O-])o1	13%
O=C(CNC(=O)c1ccccc1)NCC(O)c1ccc([N+](=O)[O-])cc1 (centres unmarked)	12.2%
COc1ccccc1NC(=O)C1(c2ccccc2)CCCC1	9.54%
C/C(=C\C(=S)Nc1ccccc1)Nc1ccccc1	19.8%
CN(CC(=O)Nn1cnnc1)S(=O)(=O)c1ccc(Br)cc1	1.34%
Cc1cc(Nc2ccccc2C(=O)O)nc2nc3ccccc3c(=O)n12	-2.75%
O=C1C2C3C=CC(C3)C2C(=O)N1/N=C/c1cn(Cc2ccc(F)cc2)c2ccccc12 (centres unmarked)	15.7%
CC/C(=N\NC(=S)NC(C)C)c1ccc(OC(F)F)cc1	-7.25%
CC(=O)OC1CC[C@@]2(C)C(=CC(=O)C3C4CCC(OC(C)=O)[C@@]4(C)CCC32)C1 (some centres unmarked)	9.68%
Cc1ccc(-n2ncc3c(NCc4ccccc4)ncnc32)cc1	7.45%
Cc1c(NC(=S)N2CCN(c3cccc(Cl)c3)CC2)c(=O)n(-c2ccccc2)n1C	9.46%
Cc1ccc2oc(C(=O)NC3CCS(=O)(=O)C3)cc(=O)c2c1 (centres unmarked)	18.6%
COc1ccc(N2C(=O)CC(N(C)CCc3ccc(OC)c(OC)c3)C2=O)cc1 (centres unmarked)	10.1%
